From the supplement of paper PMC11417369 come the findings set out here.

Some of the results follow.

The assay concerns PF3D7_0420300 AP2 domain 1 (GST-tagged). The experiment in a line: gcPBM binding intensity (ln(normalized median fluorescence intensity)); higher = stronger DNA binding. The gist of the method: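 Binding intensity values are the highest Masliner-normalised natural-log median intensity among replicate spots of either probe orientation. The binding step lasted 1 h in 1× PBS with 1% milk, 0.2 mg/ml BSA, 0.5% salmon testes DNA and 0.03% Triton X-100, using GST-tagged P. falciparum DNA-binding domains expressed in E. coli on an Agilent 4 × 180k array of primer-extended double-stranded 36-bp intergenic genomic probes plus negative controls. Alexa488 anti-GST antibody and a 488 nm scan detected bound protein.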
As to “TCTTTCTAAAGATGTAGTACAAAATAAATATAATAT [XGTACX_site6564]”, the “gcPBM binding intensity (ln)” value came out at 9.19. Turning to “TTTATACAAACAACTTTATATTAATGTTTAACGGAG [GTGCAC_negctrl_site396]”, the “gcPBM binding intensity (ln)” value was found to be 9.02. For the sequence “AAGGCAAACAAACACACACACATATATACATATATA [CACACA_site2122]”, the “gcPBM binding intensity (ln)” value amounted to 9.98. With “TTATCACACCTTTTTTGTACGAAATAAAAAAAAAAA [XGTACX_site5564]”, the “gcPBM binding intensity (ln)” value was 8.8. With “TAATATGCTCATGTAACACACATTTGCATATTTTTC [CACACA_site1357]”, the “gcPBM binding intensity (ln)” value worked out at 9.39. Under “GATATTATGTGTTTGGTATTTTTTGATGTTGGTAGG [XGTACX_negctrl_site563]” stands 9.56; under “TAGAACAAATAAAACACACACATATAAATATAGATG [CACACA_site7325]”, 9.95.

Take “ATATATGACAAATGTAGTACAAATTATTGTATCATA [XGTACX_site3675]”: the “gcPBM binding intensity (ln)” value was 9.31. For “AGAATATTTAAAAAAGGTACACAAAAACCAAAATAA [XGTACX_site8569]” the value was 9.56.

For the sequence “TTATTGCATATTTACACACGTACTAATTTAAACAAG [CACACA_site971]”, the “gcPBM binding intensity (ln)” value is 9.45.

Take “ATAAATTCATATATGAGTACTAAAAATATCTTTTTC [XGTACX_site5541]”: the “gcPBM binding intensity (ln)” value came out at 9.09.

As to “TATTAATACAGACACACACACACACCCAATAAAATA [CACACA_site243]”, the “gcPBM binding intensity (ln)” value is 10.1. For “AAAAAAAACGAACACACACACATTCAATATAAAACA [CACACA_site6170]” the value was 10.2.

As for “CAATGGTCATTTAGTTGTACTTAATTTTAAATCAAA [XGTACX_site4075]”, the “gcPBM binding intensity (ln)” value amounted to 9.05.

For the sequence “ATATGTATGAAGTGTACACATATATTGTATTTTCTT [CACACA_site5503]”, the “gcPBM binding intensity (ln)” value worked out at 9.47. Under “GTAAGCACACATAGTTGTACATTAATAAAAATAAAT [XGTACX_site5876]” stands 9.2; under “TTCCTATAAAAAAACACACACATATAAATATATATA [CACACA_site2318]”, 9.74; under “AACAATTTATATAAAGCACACATGGGAAGGAAATAC [CACACA_site1712]”, 9.85.

As for “TACAATTTAATATATACACACAAATAAATTATGCTT [CACACA_site856]”, the “gcPBM binding intensity (ln)” value came to 9.41. Under “AAAGGCTATCTTATATACTCCTAAAACGCGAACGTA [CACACA_negctrl_site396]” stands 8.83; under “AATATATAAATATTGTGTACTTATTTTTTTATATGT [XGTACX_site4377]”, 9.37.

“ATAAATTCTATGTATACACACATATAAAATATAGAT [CACACA_site7296]”: the “gcPBM binding intensity (ln)” value is 9.42. In the case of “ATTATATACATATATGCACACAAAAAAATATATATT [CACACA_site8508]”, the “gcPBM binding intensity (ln)” value was 9.56. Under “TTAAAAATATTATGTACACACATTTGAGATATTTGT [CACACA_site6953]” stands 9.36; under “TTTTTTGTTATTAAAAGTACATTATATGCTAGTTAA [XGTACX_site8747]”, 8.84. Turning to “TGAAATAAAATTTATACACACTTGCTAAATGATCAT [CACACA_site4265]”, the “gcPBM binding intensity (ln)” value turned out to be 9.28. Under “TATCATTAATTTACATGTACATAAATGAATGTTTAT [XGTACX_site5608]” stands 9.11; under “TTCGTAATTTATATCACACACATATATCTATAATAA [CACACA_site7458]”, 9.59; under ATATATTAAAACCTAGTGCATTTGTACATATTTCAA, 9.22. In the case of “AGGTTAAAACATATATATATATATATATATATATAT [XGTACX_negctrl_site333]”, the “gcPBM binding intensity (ln)” value was 9. With TTATACAGGACAATAGTGCACATAAATATATGTATA, the “gcPBM binding intensity (ln)” value was determined as 9.3.

Consider “GCAGTCAAAAAGGAAAATATAAAAAAAGTATATGTG [GTGCAC_negctrl_site95]”, for which the “gcPBM binding intensity (ln)” value came out at 9.05.

Turning to “TATATATATATATACACACACACCGTCCGTGTTAAA [CACACA_site2979]”, the “gcPBM binding intensity (ln)” value stood at 9.66. Regarding “GACTATTTTAATATTTTACACACCATGTAAAATATA [CACACA_site9050]”, the “gcPBM binding intensity (ln)” value stood at 9.39.

As to “ACATAATAAAAAAAACGTACAAATAGGTTTTTCATA [XGTACX_site6645]”, the “gcPBM binding intensity (ln)” value was 9.43. Under “TTTTTTTATTATTAAAGTACTAAAAAATGAAAACTG [XGTACX_site6758]” stands 8.82. For “TGGGAATAAAAACACACACACACACCGATATATATA [CACACA_site5875]” the value was 10.3; for “TATAATAAAAAATGTACACACATAAGAAAATTTAAT [CACACA_site2901]”, 9.76; for “AAATAAATGTTATGCATACACACTTTATACCTATTT [CACACA_site3779]”, 9.59. Under “ATATATATTAGGTATTGTACTTATATGCATATAAGT [XGTACX_site2700]” stands 9.18; under “AATGAATGAATTATTTTGCGCTTATTATAGGACGAA [XGTACX_negctrl_site218]”, 9.08. In the case of “TCTTTTATGTTTGTTTTTCCCTTTTTTTATGTTCCC [CACACA_negctrl_site1722]”, the “gcPBM binding intensity (ln)” value came to 9.5. On to “CACAAAAAGAAACACACACACATATATATTTATTAT [CACACA_site3646]”, for which the “gcPBM binding intensity (ln)” value was 10.1. In the case of “TATATATATATTTATACACACATTAGTGTATACATG [CACACA_site2950]”, the “gcPBM binding intensity (ln)” value amounted to 9.39.
